The source of these data is the supplement of paper PMC11417369.

Some of the results follow.

This experiment relates to PfSIP2 AP2 domain 1 (GST-tagged). As to the kind of experiment: gcPBM binding intensity (ln(normalized median fluorescence intensity)); higher = stronger DNA binding. The procedure, abridged: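 GST-tagged P. falciparum DNA-binding domains produced in E. coli were incubated for 1 h on an Agilent 4 × 180k array of primer-extended double-stranded 36-bp intergenic genomic probes with negative controls. Binding intensity is the highest Masliner-normalised natural-log median intensity across replicate spots of either probe orientation, with bound protein detected by Alexa488 anti-GST antibody at 488 nm.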
Consider TGAAATGATCTTTAGTTGCACTTAAAAATATATATA, for which the “gcPBM binding intensity (ln)” value was 7.64.
The result for “GGTATATAAAAATATTGTACTTAAAAAAATATGTAT [XGTACX_site6253]” reads 7.23; that for TATTTCACTTTTTGTCTGCACTAAAATTTTATGGTA, 7.74; that for “TAGATACATAAACACACACACACATACATATATACA [CACACA_site9139]”, 7.03.
Regarding “AAAAAAAAAAAAAACACACACATATATATAATATAT [CACACA_site3172]”, the “gcPBM binding intensity (ln)” value is 7.12.
In the case of “TTTTGACTAATATAATATGTTAAGAATTAATAAATA [XGTACX_negctrl_site35]”, the “gcPBM binding intensity (ln)” value worked out at 6.75.
The same measure for “AAGTATAGTCTTACATATATATATATATATATATAT [GTGCAC_negctrl_site280]”: 9.42.
The result for “AGTATACTCAAACACACACACACAAAAAAAAAAAAA [CACACA_site4398]” reads 7.11; that for “TAAGAAATAAATAGTACACACATAGACACCCACCGA [CACACA_site1516]”, 7.3.
The result for “GTAATATTAATATAATGTACAAAATGAAACATATAT [XGTACX_site6219]” reads 7.01; that for “CAGTTTAATTTACATAGTACATAATATTTTAATTTT [XGTACX_site1793]”, 6.92; that for “ACAATATTATTATTTAACCATACACAATTATATGTC [XGTACX_negctrl_site378]”, 6.84.
“ATTATTTGTAATATAACACACACAAAAAAAGACTCG [CACACA_site8487]”: the “gcPBM binding intensity (ln)” value is 7.1.
The result for “TCTTTATCCTTTCTCTTTTTATTAATTATAATATTC [TGCATGCA_negctrl_site584]” reads 6.99.
On to “ATTATACCGTATTTTGCATGTAGTATTTTCATTTTA [TGCATGCA_site1021]”, for which the “gcPBM binding intensity (ln)” value is 7.14.
For “ATTAATTATGTATTTCAACAAAGAAGTGTTATATAT [GTGCAC_negctrl_site215]”, the “gcPBM binding intensity (ln)” value was 7.18.
As to “ATATATACCTAAGACACACACATATATATATATATA [CACACA_site764]”, the “gcPBM binding intensity (ln)” value is 9.24.
“AAGGAAAATATTAACTGTACATATAAAATATATATA [XGTACX_site5310]”: the “gcPBM binding intensity (ln)” value was determined as 7.31.
The same measure for “AAATGTACAGGACGCACACACATATATATATATATA [CACACA_site3674]”: 9.43; for “TATCATTTATATATGTGTACTTATTTATTTATTTAT [XGTACX_site7961]”: 7.13; for “AAAGAAAATTAAAAAGAACACACAAATATATATATA [CACACA_site9196]”: 8.83.
The result for “AATGAATCCTTATATACACACATTATTATAGTATAG [CACACA_site7454]” reads 6.87.
“ATTTATATATATTTATGTACGTATTAATTTTTTTTT [XGTACX_site3877]”: the “gcPBM binding intensity (ln)” value was found to be 7.1.
Regarding “TATCTACTTAAATAAAATAAAAATAATAAATAAAAA [TGCATGCA_negctrl_site312]”, the “gcPBM binding intensity (ln)” value worked out at 6.79.
The same measure for “ATAAAACAAAGACACACACACATACACAAAAAAAAA [CACACA_site7752]”: 7.06; for “AATAATCATGATCATAGTACGTATGAATACAAAAAA [XGTACX_site265]”: 6.93; for “ATGTATAATATTTTCACACACAAGAAAAAAGAAAAG [CACACA_site3591]”: 7.1.
The result for “ACATTATGTCATAAATGTACACATACATATACATAC [XGTACX_site8998]” reads 7.11.
The same measure for “TTTTATTTATTCCTACTTTTTTATTTATTTATTTAA [XGTACX_negctrl_site415]”: 6.88.
As to “CGTATGTATATATATATACACACTTCTGTGATACGA [CACACA_site1949]”, the “gcPBM binding intensity (ln)” value was 7.1.
The same measure for “AAATGAATTTAACAATGTACACATATATTATAAATA [XGTACX_site1449]”: 7.13.
“ATATATATATGTATATGTACTCATTCTTCTGTGTTT [XGTACX_site5014]”: the “gcPBM binding intensity (ln)” value was 8.49.
Consider “ATATACATTCTATATACATGCATACTTCATTTTGTG [TGCATGCA_site966]”, for which the “gcPBM binding intensity (ln)” value is 6.99.
The same measure for “TAAGTCAAAACTTTTTTTTCTAAATTTCCATAATTA [GTGCAC_negctrl_site29]”: 6.49; for “TACATAATAATAAGGCGTACATAAAAATTAAAAATT [XGTACX_site8769]”: 7.18.
The same measure for “AAAACGATTTTTTGCACACACATAATAAGCAGAACA [CACACA_site3871]”: 7.39; for “AGAAAAAAATAATGTACACACACATAGATGTTTATA [CACACA_site4271]”: 6.97.
The result for “TCAATAATAACAAATGAACACACATATATATGAGCA [CACACA_site8663]” reads 6.68; that for “AAAAAAAAAAAAAAAAGTACACAGTAGAATTAAATG [XGTACX_site1843]”, 8.29.
Regarding “TTTTTTTTTTAATTAACACACATAAATATATATATA [CACACA_site3275]”, the “gcPBM binding intensity (ln)” value amounted to 8.29.
For the sequence “GAACAATAAATAAAAAAAATAAAAATAAAAATAAAA [TGCATGCA_negctrl_site35]”, the “gcPBM binding intensity (ln)” value was found to be 6.96.
As for “ATAAGTAAATTAGATACACACATGATATCATACATA [CACACA_site1623]”, the “gcPBM binding intensity (ln)” value was found to be 6.89.
The same measure for “ACTAAAGTGTATCACTGTACAATTCTTCTCTTTTTT [XGTACX_site8705]”: 6.97.
As for “ATAAATTTTTTTTTTTTTTTTTTTCTTTTTCTTTGT [CACACA_negctrl_site1231]”, the “gcPBM binding intensity (ln)” value came to 6.67.
